In PubChem BioAssay AID1259407 (Chemical Carcinogenesis Research Information System (CCRIS), 2018):
“Also recorded” adds a separate entry of the source. Some entries of the source have several records that differ or are many. The other results are left out here. The rule behind the calls is not given here. There may be further records. The values listed for one entry differ, and nothing given here explains why; dose, time, organism, isomer or construct need not be as stated for each record. Brackets tell where a record comes from. A, B and so on number the origins entry by entry. Additions like (4×) say how often a value occurs here.

Tested on: CCRIS mutagenicity, Ames/micronucleus/aberration tests
Assay: CCRIS mutagenicity studies
[1] = End Point: IN VITRO CHROMOSOMAL ABERRATIONS, Test System: CHL CELLS, Metabolic Activation: NONE
[2] = Test System: AMES SALMONELLA TYPHIMURIUM, Strain/Indicator: TA100, Metabolic Activation: NONE, Method: STANDARD PLATE
[3] = Test System: AMES SALMONELLA TYPHIMURIUM, Strain/Indicator: TA98, Metabolic Activation: RAT, LIVER, S-9, AROCLOR 1254, Method: STANDARD PLATE
[4] = Test System: AMES SALMONELLA TYPHIMURIUM, Strain/Indicator: TA1535, Metabolic Activation: RAT, LIVER, S-9, AROCLOR 1254, Method: STANDARD PLATE
[5] = Test System: MOUSE LYMPHOMA, Strain/Indicator: L5178Y (TK+/TK-), Metabolic Activation: NONE, Method: SUSPENSION/PLATE
[6] = Test System: AMES SALMONELLA TYPHIMURIUM, Strain/Indicator: TA1537, Metabolic Activation: NONE, Method: STANDARD PLATE

BrCCBr
mutagenic call [1]: active; positive (structural changes) (2×); also recorded: inactive; negative; authors report equivocal results for structural changes at 0.32 mg/ml | mutagenic call [2]: active; positive [study A] and active; positive [study B] and inactive; negative [study C] | mutagenic call (Test System: E. COLI, Strain/Indicator: WP2 UVRA, Metabolic Activation: HAMSTER, LIVER, S-9, AROCLOR 1254, Method: PREINCUBATION): active; positive (2×) and inactive; negative | mutagenic call (Test System: E. COLI, Strain/Indicator: WP2 UVRA, Metabolic Activation: HAMSTER, LIVER, S-9, Method: PREINCUBATION): active; positive and inactive; negative | mutagenic call (Test System: E. COLI, Strain/Indicator: WP2 UVRA, Metabolic Activation: MOUSE, LIVER, S-9, AROCLOR 1254, Method: PREINCUBATION): active; positive and inactive; negative | mutagenic call (Test System: E. COLI, Strain/Indicator: WP2 UVRA, Metabolic Activation: MOUSE, LIVER, S-9, Method: PREINCUBATION): active; positive and inactive; negative | mutagenic call (Test System: E. COLI, Strain/Indicator: WP2 UVRA, Metabolic Activation: NONE, Method: PREINCUBATION): active; positive and inactive; negative (2×) | mutagenic call (Test System: E. COLI, Strain/Indicator: WP2 UVRA, Metabolic Activation: RAT, LIVER, S-9, Method: PREINCUBATION): inactive; negative and active; positive

COc1cc(CNC(=O)CCCC/C=C/C(C)C)ccc1O
mutagenic call [3]: inactive; negative [study A] and inactive; negative [study B] and active; positive [study C] | mutagenic call (Test System: AMES SALMONELLA TYPHIMURIUM, Strain/Indicator: TA100, Metabolic Activation: RAT, LIVER, S-9, AROCLOR 1254, Method: STANDARD PLATE): active; positive [study A] and inactive; negative [study B] | mutagenic call (Test System: AMES SALMONELLA TYPHIMURIUM, Strain/Indicator: TA100, Metabolic Activation: S-9 (0.5 ML), Method: PREINCUBATION (20 MIN)): active; positive and inactive; negative | mutagenic call [4]: inactive; negative [study A] and active; positive [study B] and inactive; negative [study C] | mutagenic call [5]: active; positive and inactive; negative

O=C(Br)CBr
mutagenic call [1]: active; positive (structural changes) (2×) and inactive; negative | mutagenic call (Test System: E. COLI, Strain/Indicator: WP2UVRA/PKM101, Metabolic Activation: NONE, Method: PREINCUBATION): inactive; negative and active; positive

[Si]
mutagenic call (Test System: AMES SALMONELLA TYPHIMURIUM, Strain/Indicator: TA98, Metabolic Activation: NONE, Method: GAS EXPOSURE): active; positive [study A] and inactive; negative [study B] and active; positive [study B] | mutagenic call (Test System: AMES SALMONELLA TYPHIMURIUM, Strain/Indicator: TA1537, Metabolic Activation: NONE, Method: GAS EXPOSURE): active; positive [study A] and inactive; negative [study B] | mutagenic call (Test System: AMES SALMONELLA TYPHIMURIUM, Strain/Indicator: TA1537, Metabolic Activation: RAT LIVER S-9, PHENOBARBITAL AND BETA-NAPHTHOFLAVONE, Method: GAS EXPOSURE): active; positive and inactive; negative

Cc1cc(-c2ccc(N=C=O)c(C)c2)ccc1N=C=O
mutagenic call [1]: inactive; negative; authors report equivocal results for structural changes at 0.4 mg/ml f; also recorded: inactive; negative; authors report equivocal results for ploidy changes at the highest dos

Oc1ccc(/C=C/c2cc(O)cc(O)c2)cc1
mutagenic call (End Point: MICRONUCLEUS, Test System: CHINESE HAMSTER LUNG CELLS, Metabolic Activation: NONE): active; positive and active; positive (aneuploidy)

Oc1cccc2cccnc12
mutagenic call [1]: inactive; negative and active; positive (structural changes)

O=C1O[C@H]([C@@H](O)CO)C(O)=C1O
mutagenic call (End Point: IN VITRO CHROMOSOMAL ABERRATIONS, Test System: CHO CELLS, Metabolic Activation: NONE): active; positive; weak response and inactive; negative (2×)

CCN(CC)c1ccc(N=Nc2sc(C=O)c(Cl)c2C#N)c(NC(=O)COC)c1
mutagenic call [1]: active; positive (structural changes); precipitation occurred at all doses; also recorded: active; positive (structural and ploidy changes); precipitation occurred at all doses; also recorded: active; positive (ploidy changes); precipitation occurred at all doses

Oc1ccc2ccccc2c1N=Nc1ccccc1
mutagenic call [5]: active; positive [study A]; also recorded: inactive; positive. reevaluation of results: negative [study B] | mutagenic call (Test System: MOUSE LYMPHOMA, Strain/Indicator: L5178Y (TK+/TK-), Metabolic Activation: RAT, LIVER, S-9, AROCLOR 1254, Method: SUSPENSION/PLATE): active; positive [study A]; also recorded: active; positive. reevaluation of results: positive [study B]

Nc1cccc(Cl)c1
mutagenic call (Test System: AMES SALMONELLA TYPHIMURIUM, Strain/Indicator: TA98, Metabolic Activation: HAMSTER, LIVER, S-9, AROCLOR 1254 (10%), Method: PREINCUBATION): inactive; negative and active; positive

BrCCCCCBr
mutagenic call (Test System: AMES SALMONELLA TYPHIMURIUM, Strain/Indicator: TA1535, Metabolic Activation: NONE, Method: PREINCUBATION): inactive; negative and active; positive | mutagenic call (Test System: AMES SALMONELLA TYPHIMURIUM, Strain/Indicator: TA1535, Metabolic Activation: RAT LIVER S-9, PHENOBARBITAL AND BETA-NAPHTHOFLAVONE, Method: PREINCUBATION): inactive; negative and active; positive | mutagenic call (Test System: E.COLI, Strain/Indicator: WP2UVRA, Metabolic Activation: NONE, Method: PREINCUBATION): inactive; negative and active; positive | mutagenic call (Test System: E.COLI, Strain/Indicator: WP2UVRA, Metabolic Activation: RAT LIVER S-9, PHENOBARBITAL AND BETA-NAPHTHOFLAVONE, Method: PREINCUBATION): inactive; negative and active; positive

O=P1(N(CCCl)CCCl)NCCCO1 (stereo unspecified)
mutagenic call [3]: inactive; negative [study A] and active; positive [study B] | mutagenic call [2]: active; positive [study A] and inactive; negative [study B] | mutagenic call (Test System: AMES SALMONELLA TYPHIMURIUM, Strain/Indicator: TA1537, Metabolic Activation: RAT, LIVER, S-9, AROCLOR 1254, Method: STANDARD PLATE): inactive; negative [study A] and active; positive [study B]

Nc1ccc2c(c1)C(=O)c1ccccc1C2=O
mutagenic call [1]: active; positive (structural and ploidy changes); precipitation occurred at 1.2 mg/ml; also recorded: active; positive (structural and ploidy changes) | mutagenic call (Test System: AMES SALMONELLA TYPHIMURIUM, Strain/Indicator: TA100, Metabolic Activation: MOUSE, LIVER, S-9, Method: STANDARD PLATE): active; positive and inactive; negative | mutagenic call (Test System: AMES SALMONELLA TYPHIMURIUM, Strain/Indicator: TA100, Metabolic Activation: RAT, LIVER, S-9, Method: STANDARD PLATE): inactive; negative and active; positive | mutagenic call (Test System: AMES SALMONELLA TYPHIMURIUM, Strain/Indicator: TA1535, Metabolic Activation: HAMSTER, LIVER, S-9, AROCLOR 1254, Method: STANDARD PLATE): inactive; negative and active; positive | mutagenic call [4]: active; positive and inactive; negative | mutagenic call (Test System: AMES SALMONELLA TYPHIMURIUM, Strain/Indicator: TA1535, Metabolic Activation: RAT, LIVER, S-9, Method: STANDARD PLATE): active; positive and inactive; negative | mutagenic call [6]: inactive; negative and active; positive | mutagenic call (Test System: E. COLI, Strain/Indicator: WP2 UVRA, Metabolic Activation: HAMSTER, LIVER, S-9, AROCLOR 1254, Method: STANDARD PLATE): inactive; negative and active; positive | mutagenic call (Test System: E. COLI, Strain/Indicator: WP2 UVRA, Metabolic Activation: MOUSE, LIVER, S-9, AROCLOR 1254, Method: STANDARD PLATE): inactive; negative and active; positive | mutagenic call (Test System: E. COLI, Strain/Indicator: WP2 UVRA, Metabolic Activation: RAT, LIVER, S-9, AROCLOR 1254, Method: STANDARD PLATE): inactive; negative and active; positive

C=O
mutagenic call (Test System: AMES SALMONELLA TYPHIMURIUM, Strain/Indicator: TA98, Metabolic Activation: NONE, Method: PREINCUBATION): inactive; negative [study A] and active; positive [study B] and active; positive [study C] | mutagenic call [2]: active; positive [study A] and inactive; negative [study B] and active; positive [study C] | mutagenic call (Test System: AMES SALMONELLA TYPHIMURIUM, Strain/Indicator: TA100, Metabolic Activation: RAT, LIVER, S-9, AROCLOR 1254, Method: PREINCUBATION): active; positive [study A] and inactive; negative [study B] | mutagenic call (Test System: AMES SALMONELLA TYPHIMURIUM, Strain/Indicator: TA102, Metabolic Activation: NONE, Method: STANDARD PLATE): active; positive [study A] and active; positive [study B] and inactive; negative [study C] | mutagenic call (Test System: AMES SALMONELLA TYPHIMURIUM, Strain/Indicator: TA102, Metabolic Activation: RAT, LIVER, S-9, AROCLOR 1254, Method: STANDARD PLATE): active; positive [study A] and inactive; negative [study B] and inactive; negative [study C] | mutagenic call [6]: inactive; negative and active; positive | mutagenic call (Test System: E. COLI, Strain/Indicator: WP2 (PKM101), Metabolic Activation: NONE, Method: STANDARD PLATE): active; positive [study A] and inactive; negative [study B] and inactive; negative [study C]

CCn1c2ccccc2c2cc(C=O)ccc21
mutagenic call [1]: inactive; negative; also recorded: authors report equivocal results for structural and ploidy changes at the highes
